Measurements taken from article PMC9911399, “Two distinct binding modes provide the RNA-binding protein RbFox with extraordinary sequence specificity”.
Changes are numbered by the printed parent chain; changes in the protein carry UniProt numbers. The list shows a part of the results.

B1: CGGAAUA (DNA:RNA)
RNA: GGGAGACCGGAAUUCAGAUUGUCCCGGAAUAUUAAAUCCCGUCGUAGCCACCA
DNA 1: CAATCTGAATTCCGGTCTCCC
DNA 2: TGGTGGCTACGACGGGATT
B2: CGAGCUU (DNA:RNA)
RNA: B1 RNA with G27A, A28G, A29C, A31U
DNA 1: CAATCTGAATTCCGGTCTCCC
DNA 2: TGGTGGCTACGACGGGATT
B3: UCCGGGA (DNA:RNA)
RNA: B1 RNA with C25U, G26C, G27C, A28G, A29G, U30G
DNA 1: CAATCTGAATTCCGGTCTCCC
DNA 2: TGGTGGCTACGACGGGATT
B4: ACUAUGU (DNA:RNA)
RNA: B1 RNA with C25A, G26C, G27U, A29U, U30G, A31U
DNA 1: CAATCTGAATTCCGGTCTCCC
DNA 2: TGGTGGCTACGACGGGATT
B5: UUGAUUA (DNA:RNA)
RNA: B1 RNA with C25U, G26U, A29U
DNA 1: CAATCTGAATTCCGGTCTCCC
DNA 2: TGGTGGCTACGACGGGATT
B6: GGUGCGG (DNA:RNA)
RNA: B1 RNA with C25G, G27U, A28G, A29C, U30G, A31G
DNA 1: CAATCTGAATTCCGGTCTCCC
DNA 2: TGGTGGCTACGACGGGATT
B7: CGAUACA (DNA:RNA)
RNA: B1 RNA with G27A, A28U, U30C
DNA 1: CAATCTGAATTCCGGTCTCCC
DNA 2: TGGTGGCTACGACGGGATT
B8: AACUUGG (DNA:RNA)
RNA: GGGAGACCGGAAUUCAGAUUGUCCAACUUGGUUAAAUCCCGUCGUAGCCACCA
DNA 1: CAATCTGAATTCCGGTCTCCC
DNA 2: TGGTGGCTACGACGGGATT
B9: GUUAGAA (DNA:RNA)
RNA: B1 RNA with C25G, G26U, G27U, A29G, U30A
DNA 1: CAATCTGAATTCCGGTCTCCC
DNA 2: TGGTGGCTACGACGGGATT
B10: UGGAUAG (DNA:RNA)
RNA: B1 RNA with C25U, A29U, U30A, A31G
DNA 1: CAATCTGAATTCCGGTCTCCC
DNA 2: TGGTGGCTACGACGGGATT
B11: AUACAGG (DNA:RNA)
RNA: B8 RNA with A26U, C27A, U28C, U29A
DNA 1: CAATCTGAATTCCGGTCTCCC
DNA 2: TGGTGGCTACGACGGGATT
B12: CCAGCCG (DNA:RNA)
RNA: B8 RNA with A25C, A26C, C27A, U28G, U29C, G30C
DNA 1: CAATCTGAATTCCGGTCTCCC
DNA 2: TGGTGGCTACGACGGGATT
B13: UGCCCUC (DNA:RNA)
RNA: B1 RNA with C25U, G27C, A28C, A29C, A31C
DNA 1: CAATCTGAATTCCGGTCTCCC
DNA 2: TGGTGGCTACGACGGGATT
B14: CAAGACA (DNA:RNA)
RNA: B1 RNA with G26A, G27A, A28G, U30C
DNA 1: CAATCTGAATTCCGGTCTCCC
DNA 2: TGGTGGCTACGACGGGATT
B15: CUUCCAA (DNA:RNA)
RNA: B1 RNA with G26U, G27U, A28C, A29C, U30A
DNA 1: CAATCTGAATTCCGGTCTCCC
DNA 2: TGGTGGCTACGACGGGATT
B16: AGGCGCA (DNA:RNA)
RNA: B1 RNA with C25A, A28C, A29G, U30C
DNA 1: CAATCTGAATTCCGGTCTCCC
DNA 2: TGGTGGCTACGACGGGATT
B17: UUCAGGU (DNA:RNA)
RNA: B8 RNA with A25U, A26U, U28A, U29G, G31U
DNA 1: CAATCTGAATTCCGGTCTCCC
DNA 2: TGGTGGCTACGACGGGATT
B18: CCGACGA (DNA:RNA)
RNA: B1 RNA with G26C, A29C, U30G
DNA 1: CAATCTGAATTCCGGTCTCCC
DNA 2: TGGTGGCTACGACGGGATT
B19: UCGUACC (DNA:RNA)
RNA: B1 RNA with C25U, G26C, A28U, U30C, A31C
DNA 1: CAATCTGAATTCCGGTCTCCC
DNA 2: TGGTGGCTACGACGGGATT
B20: AAGUCCG (DNA:RNA)
RNA: B8 RNA with C27G, U29C, G30C
DNA 1: CAATCTGAATTCCGGTCTCCC
DNA 2: TGGTGGCTACGACGGGATT

biological target: T1, RBFOX1 RRM (Homo sapiens, UniProt Q9NWB1 109-208); assay: EMSA; HiTS-Eq, 1 nM pool, 10 min; buffer printed only for the single-RNA assays: 10 mM Tris pH 7.5, 150 mM NaCl, 3.4 mM EDTA, 0.001% NP-40, 30 C; details: tags: His6 N-terminal (pET28a); label: 5' 32P
T1 sequence: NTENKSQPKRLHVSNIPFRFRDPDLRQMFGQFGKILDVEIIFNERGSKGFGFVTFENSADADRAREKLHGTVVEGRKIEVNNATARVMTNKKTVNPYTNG
Summary of the method: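 Relative association constants, normalised to the cognate motif, were derived by comparing read counts of each RNA species with those of the control reaction. The RNA sequenced was the free fraction, separated by 8% native PAGE after a 10 min equilibration in 50 µL of 1 nM 5′-radiolabelled RNA (7 randomized nucleotides) with increasing concentrations of purified wild-type or mutant RbFox RRM.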

Row | Binder | binding signal
1 | B1 | 0.015 KA relative to UGCAUGU
2 | B2 | 0.0118 KA relative to UGCAUGU
3 | B3 | 0.00426 KA relative to UGCAUGU
4 | B4 | 0.00348 KA relative to UGCAUGU
5 | B5 | 0.0123 KA relative to UGCAUGU
6 | B6 | 0.0121 KA relative to UGCAUGU
7 | B7 | 0.00454 KA relative to UGCAUGU
8 | B8 | 0.00824 KA relative to UGCAUGU
9 | B9 | 0.0142 KA relative to UGCAUGU
10 | B10 | 0.0268 KA relative to UGCAUGU
11 | B11 | 0.00494 KA relative to UGCAUGU
12 | B12 | 0.00353 KA relative to UGCAUGU
13 | B13 | 0.012 KA relative to UGCAUGU
14 | B14 | 0.00187 KA relative to UGCAUGU
15 | B15 | 0.00223 KA relative to UGCAUGU
16 | B16 | 0.0167 KA relative to UGCAUGU
17 | B17 | 0.0103 KA relative to UGCAUGU
18 | B18 | 0.00517 KA relative to UGCAUGU
19 | B19 | 0.0103 KA relative to UGCAUGU
20 | B20 | 0.00881 KA relative to UGCAUGU
